Laboratory results from PMC7819943, “Rice protein-binding microarrays: a tool to detect cis-acting elements near promoter regions in rice”.
Some of the results follow.

These sequences were tested against T1, OsWOX13 (Oryza sativa, UniProt Q5QMM3 1-267) (assay: protein-binding microarray (RPBM); PBS, 2% BSA, 51.3 ng/ul salmon testes DNA, 50 uM zinc acetate, 200 nM TF, 25 C, 1 h; high values mean tight binding). Settings: protein: recombinant; tags: N-terminal polyhistidine and DsRed monomer fusion (pET32a); label: CyDye5-dUTP incorporated in the synthesized complementary strand; 3' TTTTT single-stranded linker to array surface; dsDNA, one strand shown.
T1 sequence: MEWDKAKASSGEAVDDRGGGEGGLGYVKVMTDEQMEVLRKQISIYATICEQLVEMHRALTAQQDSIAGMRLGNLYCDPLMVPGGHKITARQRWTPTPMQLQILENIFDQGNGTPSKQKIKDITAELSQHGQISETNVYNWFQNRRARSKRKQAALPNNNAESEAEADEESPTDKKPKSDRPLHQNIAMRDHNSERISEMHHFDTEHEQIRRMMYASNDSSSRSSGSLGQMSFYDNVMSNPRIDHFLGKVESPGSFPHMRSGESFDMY
In short: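 Using Ni–NTA, transcription factors fused N-terminally to polyhistidine and DsRed were purified after expression in E. coli BL21-CodonPlus. These were incubated at 200 nM with a blocked, double-stranded custom Agilent array for 1 h at 25 °C in a buffer containing 50 µM zinc acetate, and the array was washed. The binding signal is per-feature fluorescence intensity (arbitrary units) on an Axon 4000B scanner.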

| Sequence | binding signal |
| --- | --- |
| AAAATGACATATTGATACTTACGGCCTCATAATTTGCAAACGGAGTCACCTAGTGCAG | 6230 fluorescence intensity (a.u.) |
| ACACACCCTATGATTAATTGAGGAGTTGATAGTTGAAGTTCGGAGTCACCTAGTGCAG | 17800 fluorescence intensity (a.u.) |
| TTTAACTGCCTCCATAATTACTTGCAGAGAAATAAAACTTCGGAGTCACCTAGTGCAG | 10500 fluorescence intensity (a.u.) |
| ATGATACTGATAATTGCCTATTACTCCTGGACCAGCATTGCGGAGTCACCTAGTGCAG | 20100 fluorescence intensity (a.u.) |
| CCTGTAACAAATTTTGCGGACTATATATATAGAGGGATGTCGGAGTCACCTAGTGCAG | 4490 fluorescence intensity (a.u.) |
| CCGACATAGATTGGCCGTTAAGGCTGGGCCCATCTAGAAACGGAGTCACCTAGTGCAG | 15900 fluorescence intensity (a.u.) |
| CTTTAATGAGAATTCGAAATTCGGATGAATTCCTTCATGCCGGAGTCACCTAGTGCAG | 4450 fluorescence intensity (a.u.) |
| TGGCTGACTGCTTGTCAACGTGGATCATCATCATACAGATCGGAGTCACCTAGTGCAG | 6990 fluorescence intensity (a.u.) |
| CAAAATTTGAAGTTTGATTGAAATTGGTACGATGTGATGGCGGAGTCACCTAGTGCAG | 62400 fluorescence intensity (a.u.) |
| GCTTTCTATCAATTTCGGCCAAATCCATCCATAGAATGGTCGGAGTCACCTAGTGCAG | 6660 fluorescence intensity (a.u.) |
| TATAGCTGATTTCTTTAATTAACAAACTCACAAATCGCGCCGGAGTCACCTAGTGCAG | 36000 fluorescence intensity (a.u.) |
| CCTCCTATTGATGCAAATTAGTTTGCAGTTTGTTTCGAACCGGAGTCACCTAGTGCAG | 11600 fluorescence intensity (a.u.) |
| TCTACTATAGCAATTGATTAACACGCTAAATAAGCAAGTACGGAGTCACCTAGTGCAG | 7340 fluorescence intensity (a.u.) |
| CTTGTCTTATTTGATTGTTGCATTTACATTTATGCAATTTCGGAGTCACCTAGTGCAG | 9350 fluorescence intensity (a.u.) |
| ATTCTCTCTTTTGCTCGCTTTGTTCCCTTTTCTTTCTTTTCGGAGTCACCTAGTGCAG | 3770 fluorescence intensity (a.u.) |
| GTTGTTCATTAACTAGATTATGTACTGAATCAGAGCTTAGCGGAGTCACCTAGTGCAG | 5040 fluorescence intensity (a.u.) |
| GAAGTAATAAATTGCTAATATGATCAATTGTTCGACTGACCGGAGTCACCTAGTGCAG | 18100 fluorescence intensity (a.u.) |
| GGTGCAGCTGATTAGATTGCTCTGCTAACATCTGAGTGAACGGAGTCACCTAGTGCAG | 16900 fluorescence intensity (a.u.) |
| ATTGTCATAATTTTATTATCAAATCCCACCGAGAATCTAGCGGAGTCACCTAGTGCAG | 3790 fluorescence intensity (a.u.) |
| GTTGCTTAATTGGTTAGGTTTCTTATGGTGGAGCTGCCCACGGAGTCACCTAGTGCAG | 31300 fluorescence intensity (a.u.) |
| CTTGCTGAATCGTCATTGATAATTAGGGGAGGAGGAACAACGGAGTCACCTAGTGCAG | 5350 fluorescence intensity (a.u.) |

| Sequence | binding signal |
| --- | --- |
| CTTGATTGACGACCATCTCGTGGTTACCAATTCCATCACCCGGAGTCACCTAGTGCAG | 60000 fluorescence intensity (a.u.) |
| CTATAAGAGATTGGCTGGATAAGGGACATGACAGGTCTCCCGGAGTCACCTAGTGCAG | 10100 fluorescence intensity (a.u.) |
| GGGGAGTCAATTATAGGGCATTAAATGACCTTTTCAATATCGGAGTCACCTAGTGCAG | 15300 fluorescence intensity (a.u.) |
| GACAAATTTGTAATAGGAGATTTAATTAACCCTATCATTCCGGAGTCACCTAGTGCAG | 33900 fluorescence intensity (a.u.) |
| TACTTCTTCCCTAATTAGAGTCCAAAAGCTGATAAGGCACCGGAGTCACCTAGTGCAG | 3390 fluorescence intensity (a.u.) |
| ATCTAAATTTTATAACATAATCATAGATCCAATCCAAATCCGGAGTCACCTAGTGCAG | 16400 fluorescence intensity (a.u.) |
| TAAAACTCAATTAGTTACACGTTATTATTACCTCACTTGGCGGAGTCACCTAGTGCAG | 8990 fluorescence intensity (a.u.) |
| AATAATGTAAAATTTTAGTATCATATCTCTATCTCTACTACGGAGTCACCTAGTGCAG | 7000 fluorescence intensity (a.u.) |
| ATGACTAAACATTAACTCTCAAAATTAGCTCTGGGCTAATCGGAGTCACCTAGTGCAG | 8450 fluorescence intensity (a.u.) |
| GAGTTGACGGGGACGAGATTGGCGGATTTGGGGATGCGGCCGGAGTCACCTAGTGCAG | 24100 fluorescence intensity (a.u.) |
| TCCAAAATTGGGCGTCTTGACAAGTTCATTGAACGTGTAACGGAGTCACCTAGTGCAG | 5560 fluorescence intensity (a.u.) |
| ATATCCTATAGATAGATTGAAATTGTAGGGAAAATTGTGACGGAGTCACCTAGTGCAG | 8140 fluorescence intensity (a.u.) |
| GGCACCAATGATTGTATCTGGTTAGTGGAGTAATTGAGACCGGAGTCACCTAGTGCAG | 17800 fluorescence intensity (a.u.) |
| CATGCGTGATTTATTTAACTGAAAAGAAATCTAAAGGCACCGGAGTCACCTAGTGCAG | 44700 fluorescence intensity (a.u.) |
| AGTAGATTTTGACATGCTGTGTGTTAACAATGGGAGTAGACGGAGTCACCTAGTGCAG | 3550 fluorescence intensity (a.u.) |
| CCTCGCATTCATTCCAATTAGTGATCTTGAGGGGCTCCATCGGAGTCACCTAGTGCAG | 5820 fluorescence intensity (a.u.) |
| AGCTTGACAGGAGGCTGTCCGGTGTGGAGGGGTTGGACCACGGAGTCACCTAGTGCAG | 9160 fluorescence intensity (a.u.) |
| GAAAACAAGGAGATTGAAGTTTAGAGTTGAGGGAAAGAACCGGAGTCACCTAGTGCAG | 4270 fluorescence intensity (a.u.) |
| ATCAATCTCTTTAATTTCCTCCATCTTTCTTCTAAACCCACGGAGTCACCTAGTGCAG | 3420 fluorescence intensity (a.u.) |
| AAATATATGTTCAATTAACAAGCAAGTCAATTCGTGACATCGGAGTCACCTAGTGCAG | 4070 fluorescence intensity (a.u.) |
| TCCACCAATCAGACCGGTGGTAATCGAGAGTTCAGACCAGCGGAGTCACCTAGTGCAG | 19700 fluorescence intensity (a.u.) |
